# In paper PMC4336329 (PLoS ONE, 2015):
# Screen size: about 310,000 compounds; about 14,000 (4.5%) showed an effect of 50% or more. The effect is printed as a negative number. This is one part of the list.
# Biological target: human ether-à-go-go-related gene (hERG) potassium channel (human, UniProt Q12809)
# Assay: primary screen, population patch clamp on CHO cells stably expressing hERG
# 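Note: peak tail current of the secondary pulse compared with the same well before compound.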
# Sequence of human ether-à-go-go-related gene (hERG) potassium channel (Q12809 whole entry, looked up): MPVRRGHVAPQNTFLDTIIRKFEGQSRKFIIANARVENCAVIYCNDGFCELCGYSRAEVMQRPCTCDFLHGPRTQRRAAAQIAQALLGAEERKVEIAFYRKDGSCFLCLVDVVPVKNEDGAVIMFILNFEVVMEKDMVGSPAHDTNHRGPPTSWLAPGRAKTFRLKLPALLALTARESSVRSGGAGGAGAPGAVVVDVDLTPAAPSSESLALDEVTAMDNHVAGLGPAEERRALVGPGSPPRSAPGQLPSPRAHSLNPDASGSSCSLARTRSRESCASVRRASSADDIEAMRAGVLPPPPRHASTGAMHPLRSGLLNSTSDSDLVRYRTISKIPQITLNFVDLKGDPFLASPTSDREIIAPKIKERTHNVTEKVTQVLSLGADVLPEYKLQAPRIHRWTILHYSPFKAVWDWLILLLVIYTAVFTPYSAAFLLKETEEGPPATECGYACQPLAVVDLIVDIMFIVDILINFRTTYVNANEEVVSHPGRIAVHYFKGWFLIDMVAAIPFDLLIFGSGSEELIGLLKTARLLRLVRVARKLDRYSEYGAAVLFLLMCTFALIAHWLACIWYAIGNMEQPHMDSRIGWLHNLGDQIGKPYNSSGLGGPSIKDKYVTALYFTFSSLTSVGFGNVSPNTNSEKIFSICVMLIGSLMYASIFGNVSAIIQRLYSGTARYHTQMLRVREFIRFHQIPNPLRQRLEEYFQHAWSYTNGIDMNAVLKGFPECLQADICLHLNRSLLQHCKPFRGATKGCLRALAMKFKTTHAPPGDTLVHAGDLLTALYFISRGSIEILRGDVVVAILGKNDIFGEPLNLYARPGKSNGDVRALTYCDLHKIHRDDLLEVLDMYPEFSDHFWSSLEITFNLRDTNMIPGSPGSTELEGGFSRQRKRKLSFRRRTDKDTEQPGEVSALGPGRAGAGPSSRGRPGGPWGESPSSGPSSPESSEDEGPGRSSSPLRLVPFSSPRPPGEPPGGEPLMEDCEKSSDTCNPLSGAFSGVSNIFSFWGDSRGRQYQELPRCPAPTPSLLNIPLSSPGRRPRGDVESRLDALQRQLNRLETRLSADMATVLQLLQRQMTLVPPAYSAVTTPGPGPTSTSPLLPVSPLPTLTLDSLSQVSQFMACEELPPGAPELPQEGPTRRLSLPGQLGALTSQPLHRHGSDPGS
row,Compound,"hERG current change (%, negative = inhibition) at 10uM"
1,CC(C)OCCCNS(=O)(=O)c1ccc2c(c1)oc(=O)n2C,2.69%
2,COc1ccc(/C=N/NC(=O)c2cc(-c3ccccc3OC)nc3ccccc23)cc1COC(C)=O,4.06%
3,O=C(Cn1nc(C(F)(F)F)cc1C1CC1)Nc1ccccc1F,4.41%
4,Fc1ccc(OCc2nc3ccccc3s2)cc1,3.98%
5,Cn1c(=O)oc2cc(S(=O)(=O)Nc3ccc4c(c3)OCO4)ccc21,-2.86%
6,CCOC(=O)SC1=N/C(=C\c2ccc(N(C)C)cc2)C(=O)S1,14.9%
7,CCCc1ncc(CN2CCCCC2C(=O)Nc2ccc(Oc3ccccc3)nc2)cn1 (stereo not drawn),3.25%
8,O=C(NC(=S)Nc1cccc(C(F)(F)F)c1)c1ccc2nonc2c1,10.8%
9,CC1(C)CC(=O)C(C=NCC2CCCO2)=C(O)C1 (stereo not drawn),7.93%
10,O=C(N/N=C/c1ccco1)c1cc(-c2cccc3ccccc23)n[nH]1,7.01%
11,COc1ccc2oc(C(=O)N3CCc4ccccc43)c(C)c2c1,15.1%
12,COCc1nc(-c2ccc(-c3ccccc3)nc2OC)no1,-2.5%
13,C/C(=N\NC(=O)c1c[nH]c2ccccc12)c1ccc(C)o1,-2.66%
14,O=C(NCCN1CCCC1)c1ccc(CS(=O)(=O)c2c(Cl)cccc2Cl)o1,-45.5%
15,Cc1nnc2ccc(-c3ccc(NS(=O)(=O)c4ccc(Cl)s4)cc3)nn12,0.314%
16,Cc1c(NC(=O)c2cccc(NC(=O)Cc3ccccc3F)c2)c(=O)n(-c2ccccc2)n1C,3.2%
17,O=C(Nc1ccccc1-c1ccccc1NC(=O)c1ccco1)c1ccco1,9.04%
18,Cc1ccc(C)c(NC(=S)NC23CN4CN(CN(C4)C2)C3)c1,17.7%
19,CCc1nnc(SCC(=O)Nc2ccccc2)nc1CC,-6.49%
20,CC1C(O)=C(c2nc3ccccc3[nH]2)C(=N)N1c1ccccc1 (stereo not drawn),-33%
21,CCOC(=O)c1sc(N)nc1C(C)(C)C,1.39%
22,COc1cccc(NC(=O)CSc2nnc(Cc3ccc(C)cc3)c(=O)n2N)c1,-33.5%
23,Cc1ccc(C2(C)NC(=O)N(CC(=O)Nc3ccc(S(=O)(=O)Nc4nccs4)cc3)C2=O)cc1 (stereo not drawn),14.4%
24,CCOC(=O)N1CCN(C(=O)COC(=O)C2CCN(S(=O)(=O)c3c(Cl)cccc3Cl)CC2)CC1,-38.1%
